# Assay results reported in the supplement of paper PMC8728848.
# The other results are listed elsewhere or left out.
# B1: Epa1-NP (Candida glabrata), Q6VBJ0 (protein)
# chain: MILNPALFLNKCVCIYTTLILLLLTNGGYATSSNDISLASKDPTTFPLGCSPDITTPKKGLSMELYSYDFRKKGSYPCWDAAYLDPNYPRTGYKSHRLLAKVDGVTGNINFYYHATKGCTPQLGHLPASYNYPKPLTMTNFTMLLYGYFRPKVTGFHTFTISADDLLFVNFGAGNAFDCCRRDSSADHFGNYQAYAIWGSKTAKDELTVHLDAGVYYPIRLFYNNREYDGALSFTFKTESNENTVSDFSEYFFSLDDTEEGCPGLISYDSSCASVKTSKIIGIDYHTETPNENLVPITKTIYHLGIPCTGTTTTPLCGSGFYDPLANKCVTINTSSTSSVTKTTSHTTSKEVSFHSSISSQKTLIPKSIPSPYGPIKSQSIPTEMETSSEISSSEYAFSDVISTPSHSPYTKKHSSLNSSSYTSTVIHSLTSYSISQGIFSTSLSEQNITSKSSTDKFSTATSMSNNITQSSIIISQFSTNNENYTTTSMHTSSDKISTETLNNSISTTTSILFSNSSTILKNNTTIISSDKDTHYHPVNPTIVCSTNKTEIICASITQPSISNSNNHWSSSVLKFNSTTVRSTLPSSAGSNETSINVPFSSSTESNTSTSSTSTSNSKMVRSTLPSSAGSNETSISVPFSSSTESNTSTSSTSTSNSKMVRSTLPSSAGSNETSINVPFSSSTESNTSTSSTSTSNSKTVRSTPFSSAGIIMTSLSQRNNKSASSYASSNSKCYNTADSCRKVHSTPSYLLTSSYTSEGVDYDCSLVSTKLKINDTNCVNNKHTTKSCLKTSVTTTIPTLEIKTARKSSSNTIGLHSYPTSSPNKSISSAPIIGYISSFKTIKTASPSYQTSDLTTITTITSLNNPGSTAVENTHESNDKSRKTSSNDISSKHSVIKETKDAVESSNKSHQTNTLKCSSIIIASSSHNSYESLGGTTLTLTLSKVYSPQNNDTLPFLEISEVNPSRTVLPESSKMMQYLTSTEERNKTARNTIATNIVSISTFHFEGEGNAIRMGYTQLLLMLIGIIVMNIGT
# How the values were obtained:
# Assay in all cases: glycan array binding signal (z-score within array); higher = stronger binding
# Conditions in all cases: glycan notation: IUPAC condensed, linker removed
# [1] = target: Gal(b1-3)GlcNAc(b1-3)Gal(b1-4)GlcNAc(b1-2)[Gal(b1-3)GlcNAc(b1-3)Gal(b1-4)GlcNAc(b1-6)]Man(a1-6)[Gal(b1-3)GlcNAc(b1-3)Gal(b1-4)GlcNAc(b1-2)Man(a1-3)]Man(b1-4)GlcNAc(b1-4)[Fuc(a1-6)]GlcNAc
# Summary of the method: (§1)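 Negative Z-scores can be read as non-binding. The Z-score is calculated within each array and then averaged across arrays of one protein sequence at different concentrations or buffers and across linkers. Arrays, 3228 in all, were curated from the Consortium for Functional Glycomics database and kept only where the protein sequence was available.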
# [2] = target: Gal(b1-3)GlcNAc(b1-3)Gal(b1-4)GlcNAc(b1-3)Gal(b1-4)GlcNAc(b1-2)[Gal(b1-3)GlcNAc(b1-3)Gal(b1-4)GlcNAc(b1-3)Gal(b1-4)GlcNAc(b1-6)]Man(a1-6)[Gal(b1-3)GlcNAc(b1-3)Gal(b1-4)GlcNAc(b1-3)Gal(b1-4)GlcNAc(b1-2)Man(a1-3)]Man(b1-4)GlcNAc(b1-4)[Fuc(a1-6)]GlcNAc
# Summary of the method: as §1
# [3] = target: Gal(b1-3)GlcNAc(b1-3)Gal(b1-4)GlcNAc(b1-6)[Gal(b1-3)GlcNAc(b1-3)]Gal(b1-4)Glc
# Summary of the method: as §1
# [4] = target: Gal(b1-3)GlcNAc(b1-3)Gal(b1-4)[Fuc(a1-3)]GlcNAc
# Summary of the method: as §1
# [5] = target: Gal(b1-3)GlcNAc(b1-3)Gal(b1-4)[Fuc(a1-3)]GlcNAc(b1-6)[Gal(b1-3)GlcNAc(b1-3)]Gal(b1-4)Glc
# Summary of the method: as §1
# [6] = target: Gal(b1-3)GlcNAc(b1-3)GalNAc
# Summary of the method: as §1
# [7] = target: Gal(b1-3)GlcNAc(b1-6)Gal(b1-4)GlcNAc
# Summary of the method: as §1
# [8] = target: Gal(b1-3)GlcNAc(b1-6)GalNAc
# Summary of the method: as §1
# [9] = target: Gal(b1-3)GlcNAc(b1-6)[Gal(b1-3)]GalNAc
# Summary of the method: as §1
# Gal(b1-3)GlcNAc6S = target: Gal(b1-3)GlcNAc6S
# Summary of the method: as §1
# [10] = target: Gal(b1-3)[Fuc(a1-4)]GlcNAc
# Summary of the method: as §1
# [11] = target: Gal(b1-3)[Fuc(a1-4)]GlcNAc(b1-2)Man
# Summary of the method: as §1
# [12] = target: Gal(b1-3)[Fuc(a1-4)]GlcNAc(b1-2)Man(a1-3)[Gal(b1-3)[Fuc(a1-4)]GlcNAc(b1-2)Man(a1-6)]Man(b1-4)GlcNAc(b1-4)GlcNAc
# Summary of the method: as §1
# [13] = target: Gal(b1-3)[Fuc(a1-4)]GlcNAc(b1-2)Man(a1-3)[Gal(b1-3)[Fuc(a1-4)]GlcNAc(b1-2)Man(a1-6)]Man(b1-4)GlcNAc(b1-4)[Fuc(a1-6)]GlcNAc
# Summary of the method: as §1
# [14] = target: Gal(b1-3)[Fuc(a1-4)]GlcNAc(b1-3)Gal(b1-3)[Fuc(a1-4)]GlcNAc
# Summary of the method: as §1
# [15] = target: Gal(b1-3)[Fuc(a1-4)]GlcNAc(b1-3)Gal(b1-4)GlcNAc
# Summary of the method: as §1
# [16] = target: Gal(b1-3)[Fuc(a1-4)]GlcNAc(b1-3)Gal(b1-4)[Fuc(a1-3)]GlcNAc
# Summary of the method: as §1
# [17] = target: Gal(b1-3)[Fuc(a1-4)]GlcNAc(b1-6)GalNAc
# Summary of the method: as §1
# [18] = target: Gal(b1-3)[GlcNAc(b1-6)]GalNAc
# Summary of the method: as §1
# [19] = target: Gal(b1-3)[GlcNAc(b1-6)]GlcNAc
# Summary of the method: as §1
# [20] = target: Gal(b1-3)[Neu5Ac(a2-6)]GalNAc
# Summary of the method: as §1
# [21] = target: Gal(b1-3)[Neu5Ac(a2-6)]GlcNAc
# Summary of the method: as §1
# [22] = target: Gal(b1-3)[Neu5Ac(a2-6)]GlcNAc(a1-4)Gal(b1-4)Glc
# Summary of the method: as §1
# [23] = target: Gal(b1-3)[Neu5Ac(a2-6)]GlcNAc(b1-4)Gal(b1-4)Glc
# Summary of the method: as §1
# [24] = target: Gal(b1-3)[Neu5Ac(a2-6)]GlcNAc(b1-6)Gal(b1-4)Glc
# Summary of the method: as §1
# [25] = target: Gal(b1-3)[Neu5Ac(b2-6)]GalNAc
# Summary of the method: as §1
# [26] = target: Gal(b1-3)[Neu5Ac(b2-6)]GlcNAc
# Summary of the method: as §1
# Gal(b1-4)Gal = target: Gal(b1-4)Gal
# Summary of the method: as §1
# [27] = target: Gal(b1-4)GalNAc(a1-3)[Fuc(a1-2)]Gal(b1-4)GlcNAc
# Summary of the method: as §1
# [28] = target: Gal(b1-4)GalNAc(b1-3)[Fuc(a1-2)]Gal(b1-4)GlcNAc
# Summary of the method: as §1
binder,measurement,setting,value
B1,glycan array binding signal (z-score),[1],0.228
same,glycan array binding signal (z-score),[2],0.38
same,glycan array binding signal (z-score),[3],0.647
same,glycan array binding signal (z-score),[4],-0.25
same,glycan array binding signal (z-score),[5],0.199
same,glycan array binding signal (z-score),[6],-0.236
same,glycan array binding signal (z-score),[7],1.06
same,glycan array binding signal (z-score),[8],-0.273
same,glycan array binding signal (z-score),[9],1.62
same,glycan array binding signal (z-score),Gal(b1-3)GlcNAc6S,0.331
same,glycan array binding signal (z-score),[10],-0.272
same,glycan array binding signal (z-score),[11],-0.278
same,glycan array binding signal (z-score),[12],-0.294
same,glycan array binding signal (z-score),[13],-0.172
same,glycan array binding signal (z-score),[14],-0.284
same,glycan array binding signal (z-score),[15],0.25
same,glycan array binding signal (z-score),[16],-0.32
same,glycan array binding signal (z-score),[17],-0.274
same,glycan array binding signal (z-score),[18],2.05
same,glycan array binding signal (z-score),[19],1.72
same,glycan array binding signal (z-score),[20],5.06
same,glycan array binding signal (z-score),[21],2.02
same,glycan array binding signal (z-score),[22],1.84
same,glycan array binding signal (z-score),[23],-0.264
same,glycan array binding signal (z-score),[24],-0.25
same,glycan array binding signal (z-score),[25],0.372
same,glycan array binding signal (z-score),[26],0.26
same,glycan array binding signal (z-score),Gal(b1-4)Gal,-0.205
same,glycan array binding signal (z-score),[27],0.145
same,glycan array binding signal (z-score),[28],0.59
